Results as given in paper PMC7529893, “Structural basis for substrate recognition and chemical inhibition of oncogenic MAGE ubiquitin ligases” (Nature Communications, 2020).
These are yes or no findings as the source states them, for the method shown. In cells and extracts the contact can be indirect. Some entries that bind do so weakly or less than the wild type. Sequences can lack the tags named with a protein.

T1: GST-MAGE-A11 MHD (human MAGE-A11 MHD amino acid 218-429) (human) (UniProt P43364)
T1 sequence: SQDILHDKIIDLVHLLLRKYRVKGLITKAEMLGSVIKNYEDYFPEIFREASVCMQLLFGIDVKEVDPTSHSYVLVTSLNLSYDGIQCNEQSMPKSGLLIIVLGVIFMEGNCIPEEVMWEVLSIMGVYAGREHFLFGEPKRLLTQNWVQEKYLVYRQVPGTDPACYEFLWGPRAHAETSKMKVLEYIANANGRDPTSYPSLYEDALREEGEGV

T2: GST-PCF11 (human PCF11 amino acid 637-702) (human) (UniProt O94913)
T2 sequence: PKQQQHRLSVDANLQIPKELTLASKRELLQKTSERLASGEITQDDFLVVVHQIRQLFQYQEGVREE

T3: Myc-MAGE-A3 wild-type, P43357
T3 chain: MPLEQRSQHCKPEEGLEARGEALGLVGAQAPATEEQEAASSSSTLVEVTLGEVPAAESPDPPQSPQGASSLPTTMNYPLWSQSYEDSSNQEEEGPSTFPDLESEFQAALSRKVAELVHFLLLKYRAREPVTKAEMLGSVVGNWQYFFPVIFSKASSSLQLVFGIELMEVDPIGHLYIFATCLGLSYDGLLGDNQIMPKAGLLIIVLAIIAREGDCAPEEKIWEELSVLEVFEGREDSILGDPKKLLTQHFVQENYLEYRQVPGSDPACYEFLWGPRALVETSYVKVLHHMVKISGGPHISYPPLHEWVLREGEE

B1: Myc-RACGAP1 (protein, UniProt Q9H0H5 1-632)
chain: MDTMMLNVRNLFEQLVRRVEILSEGNEVQFIQLAKDFEDFRKKWQRTDHELGKYKDLLMKAETERSALDVKLKHARNQVDVEIKRRQRAEADCEKLERQIQLIREMLMCDTSGSIQLSEEQKSALAFLNRGQPSSSNAGNKRLSTIDESGSILSDISFDKTDESLDWDSSLVKTFKLKKREKRRSTSRQFVDGPPGPVKKTRSIGSAVDQGNESIVAKTTVTVPNDGGPIEAVSTIETVPYWTRSRRKTGTLQPWNSDSTLNSRQLEPRTETDSVGTPQSNGGMRLHDFVSKTVIKPESCVPCGKRIKFGKLSLKCRDCRVVSHPECRDRCPLPCIPTLIGTPVKIGEGMLADFVSQTSPMIPSIVVHCVNEIEQRGLTETGLYRISGCDRTVKELKEKFLRVKTVPLLSKVDDIHAICSLLKDFLRNLKEPLLTFRLNRAFMEAAEITDEDNSIAAMYQAVGELPQANRDTLAFLMIHLQRVAQSPHTKMDVANLAKVFGPTIVAHAVPNPDPVTMLQDIKRQPKVVERLLSLPLEYWSQFMMVEQENIDPLHVIENSNAFSTPQTPDIKVSLLGPVTTPEHQLLKTPSSSSLSQRVRSTLTKNTPRFGSKSKSATNLGRQGNFFASPMLK
B2: Myc-ANKRD65 (protein, UniProt E5RJM6 1-399)
chain: MDSQRPEPREEEEEEQELRWMELDSEEALGTRTEGPSVVQGWGHLLQAVWRGPAGLVTQLLRQGASVEERDHAGRTPLHLAVLRGHAPLVRLLLQRGAPVGAVDRAGRTALHEAAWHGHSRVAELLLQRGASAAARSGTGLTPLHWAAALGHTLLAARLLEAPGPGPAAAEAEDARGWTAAHWAAAGGRLAVLELLAAGGAGLDGALLVAAAAGRGAALRFLLARGARVDARDGAGATALGLAAALGRSQDIEVLLGHGADPGIRDRHGRSALHRAAARGHLLAVQLLVTQGAEVDARDTLGLTPLHHASREGHVEVAGCLLDRGAQVDATGWLRKTPLHLAAERGHGPTVGLLLSRGASPTLRTQWAEVAQMPEGDLPQALPELGGGEKECEGIESTG
B3: Myc-ZBTB7C (protein, UniProt A1YPR0 1-619)
chain: MANDIDELIGIPFPNHSSEVLCSLNEQRHDGLLCDVLLVVQEQEYRTHRSVLAACSKYFKKLFTAGTLASQPYVYEIDFVQPEALAAILEFAYTSTLTITAGNVKHILNAARMLEIQCIVNVCLEIMEPGGDGGEEDDKEDDDDDEDDDDEEDEEEEEEEEEDDDDDTEDFADQENLPDPQDISCHQSPSKTDHLTEKAYSDTPRDFPDSFQAGSPGHLGVIRDFSIESLLRENLYPKANIPDRRPSLSPFAPDFFPHLWPGDFGAFAQLPEQPMDSGPLDLVIKNRKIKEEEKEELPPPPPPPFPNDFFKDMFPDLPGGPLGPIKAENDYGAYLNFLSATHLGGLFPPWPLVEERKLKPKASQQCPICHKVIMGAGKLPRHMRTHTGEKPYMCTICEVRFTRQDKLKIHMRKHTGERPYLCIHCNAKFVHNYDLKNHMRIHTGVRPYQCEFCYKSFTRSDHLHRHIKRQSCRMARPRRGRKPAAWRAASLLFGPGGPAPDKAAFVMPPALGEVGGHLGGAAVCLPGPSPAKHFLAAPKGALSLQELERQFEETQMKLFGRAQLEAERNAGGLLAFALAENVAAARPYFPLPDPWAAGLAGLPGLAGLNHVASMSEANN
B4: Myc-MAGE-A11 MHD (197–429) (domain or fragment, UniProt P43364 197-429)
chain: SGSQEKEGPSTSPDLIDPESFSQDILHDKIIDLVHLLLRKYRVKGLITKAEMLGSVIKNYEDYFPEIFREASVCMQLLFGIDVKEVDPTSHSYVLVTSLNLSYDGIQCNEQSMPKSGLLIIVLGVIFMEGNCIPEEVMWEVLSIMGVYAGREHFLFGEPKRLLTQNWVQEKYLVYRQVPGTDPACYEFLWGPRAHAETSKMKVLEYIANANGRDPTSYPSLYEDALREEGEGV
B5: Myc-MAGE-A11 wild-type (in vitro translated) (protein, UniProt P43364 1-429)
chain: METQFRRGGLGCSPASIKRKKKREDSGDFGLQVSTMFSEDDFQSTERAPYGPQLQWSQDLPRVQVFREQANLEDRSPRRTQRITGGEQVLWGPITQIFPTVRPADLTRVIMPLEQRSQHCKPEEGLQAQEEDLGLVGAQALQAEEQEAAFFSSTLNVGTLEELPAAESPSPPQSPQEESFSPTAMDAIFGSLSDEGSGSQEKEGPSTSPDLIDPESFSQDILHDKIIDLVHLLLRKYRVKGLITKAEMLGSVIKNYEDYFPEIFREASVCMQLLFGIDVKEVDPTSHSYVLVTSLNLSYDGIQCNEQSMPKSGLLIIVLGVIFMEGNCIPEEVMWEVLSIMGVYAGREHFLFGEPKRLLTQNWVQEKYLVYRQVPGTDPACYEFLWGPRAHAETSKMKVLEYIANANGRDPTSYPSLYEDALREEGEGV
B6: AMPKα1, Q13131 1-559 (enzyme)
chain: MRRLSSWRKMATAEKQKHDGRVKIGHYILGDTLGVGTFGKVKVGKHELTGHKVAVKILNRQKIRSLDVVGKIRREIQNLKLFRHPHIIKLYQVISTPSDIFMVMEYVSGGELFDYICKNGRLDEKESRRLFQQILSGVDYCHRHMVVHRDLKPENVLLDAHMNAKIADFGLSNMMSDGEFLRTSCGSPNYAAPEVISGRLYAGPEVDIWSSGVILYALLCGTLPFDDDHVPTLFKKICDGIFYTPQYLNPSVISLLKHMLQVDPMKRATIKDIREHEWFKQDLPKYLFPEDPSYSSTMIDDEALKEVCEKFECSEEEVLSCLYNRNHQDPLAVAYHLIIDNRRIMNEAKDFYLATSPPDSFLDDHHLTRPHPERVPFLVAETPRARHTLDELNPQKSKHQGVRKAKWHLGIRSQSRPNDIMAEVCRAIKQLDYEWKVVNPYYLRVRRKNPVTSTYSKMSLQLYQVDSRTYLLDFRSIDDEITEAKSGTATPQRSGSVSNYRSCQRSDSDAEAQGKSSEVSLTSSVTSLDSSPVDLTPRPGSHTIEFFEMCANLIKILAQ
B7: Myc-MAGE-A11 I317R (in vitro translated) (protein, UniProt P43364 1-429)
chain: METQFRRGGLGCSPASIKRKKKREDSGDFGLQVSTMFSEDDFQSTERAPYGPQLQWSQDLPRVQVFREQANLEDRSPRRTQRITGGEQVLWGPITQIFPTVRPADLTRVIMPLEQRSQHCKPEEGLQAQEEDLGLVGAQALQAEEQEAAFFSSTLNVGTLEELPAAESPSPPQSPQEESFSPTAMDAIFGSLSDEGSGSQEKEGPSTSPDLIDPESFSQDILHDKIIDLVHLLLRKYRVKGLITKAEMLGSVIKNYEDYFPEIFREASVCMQLLFGIDVKEVDPTSHSYVLVTSLNLSYDGIQCNEQSMPKSGLLIRVLGVIFMEGNCIPEEVMWEVLSIMGVYAGREHFLFGEPKRLLTQNWVQEKYLVYRQVPGTDPACYEFLWGPRAHAETSKMKVLEYIANANGRDPTSYPSLYEDALREEGEGV
B8: Myc-MAGE-A11 M341R (in vitro translated) (protein, UniProt P43364 1-429)
chain: METQFRRGGLGCSPASIKRKKKREDSGDFGLQVSTMFSEDDFQSTERAPYGPQLQWSQDLPRVQVFREQANLEDRSPRRTQRITGGEQVLWGPITQIFPTVRPADLTRVIMPLEQRSQHCKPEEGLQAQEEDLGLVGAQALQAEEQEAAFFSSTLNVGTLEELPAAESPSPPQSPQEESFSPTAMDAIFGSLSDEGSGSQEKEGPSTSPDLIDPESFSQDILHDKIIDLVHLLLRKYRVKGLITKAEMLGSVIKNYEDYFPEIFREASVCMQLLFGIDVKEVDPTSHSYVLVTSLNLSYDGIQCNEQSMPKSGLLIIVLGVIFMEGNCIPEEVMWEVLSIRGVYAGREHFLFGEPKRLLTQNWVQEKYLVYRQVPGTDPACYEFLWGPRAHAETSKMKVLEYIANANGRDPTSYPSLYEDALREEGEGV

Experiments:
[1] = target: T1, GST-MAGE-A11 MHD (human MAGE-A11 MHD amino acid 218-429) (human); assay: pull-down; purified GST-tagged protein on glutathione Sepharose beads, in vitro translated Myc-tagged protein (rabbit reticulocyte lysate) added; 25 mM Tris pH 8.0, 2.7 mM KCl, 137 mM NaCl, 0.05% Tween-20, 10 mM 2-mercaptoethanol, 5% milk powder; immunoblot anti-Myc; only the target purified
[2] = target: T2, GST-PCF11 (human PCF11 amino acid 637-702) (human); assay: as above
[3] = target: T3, Myc-MAGE-A3 wild-type, P43357; assay: co-IP; HeLa cells transfected with the indicated constructs for 48 h; IP with anti-Myc, immunoblot; in Fig. 5i lysates were incubated with 100 µM SJ521054 or SJ1008066 for 24 h; conditions: remark: other sources report otherwise

Row | Binder | binding [1] | binding [2] | further results
1 | B1 | binds | – | –
2 | B2 | binds | – | –
3 | B3 | binds | – | –
4 | B4 | – | binds | –
5 | B5 | – | binds | –
6 | B6 | – | – | binding [3]: binds
7 | B7 | – | no binding | –
8 | B8 | – | no binding | –
